Laboratory results: PubChem BioAssay AID686979 (National Center for Advancing Translational Sciences (NCATS), 2013)
Hit rate of the full screen: of about 420,000 compounds, about 50,000 (12%) were called active. This list was built around the results that the source calls inconclusive (neither active nor inactive); the mix of calls is not that of the screen. Calls follow the shape of the dose curve; as a rule, active = well fitted inhibition curve with a large enough effect; inconclusive = small, poorly fitted or top-dose-only effect; inactive = flat fitted curve, though single readings scatter. Potencies of inconclusive entries are left out as doubtful fits.

Assay: qHTS for Inhibitors of human tyrosyl-DNA phosphodiesterase 1 (TDP1): qHTS in cells in presence of CPT; also: nearly all actives have a fitted effect of over 55% in size
Conditions: chicken DT40 Tdp1-/-;hTDP1 cells + 20 nM CPT, ATP luminescence, 48 h
Summary of the method: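 Cell growth measured by CellTiter-Glo luminescence after a minimum 48 h, 37 C compound exposure with 20 nM CPT in Tdp1-knockout DT40 cells stably expressing hTDP1, seeded 400/well; qHTS titration format.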

[1] = activity change, negative = growth inhibition: at 46.2 µM (top of the series)
% is scaled to controls: 0 for no effect and ±100 for the full control effect; potency is read from the fitted curve at half-maximal effect; tags tell the direction and shape of the fitted curve.

SMILES: CC(C)c1nn2c(=O)cc(COC(=O)c3ccccc3NC(=O)COc3ccccc3)nc2s1
- Potency [1]: inactive

SMILES: CCCc1cc(C(=O)Nc2cccnc2)no1
- Potency [1]: active: 9.2 µM

SMILES: CC(C)=NOc1nc(N(C)C)nc(N(C)C)n1
- Potency [1]: inactive

SMILES: CCN(C(=O)c1cc2c(C)nc3ccccc3c2o1)c1cc(Cl)ccc1OC
- Potency [1]: active: 5.17 µM

SMILES: COc1ccc(-c2nc(CNS(=O)(=O)c3ccc(Br)cc3)cs2)cc1
- Potency [1]: inconclusive [inhibitor, single point]

SMILES: CC(=O)NC(Cc1ccc(C)cc1)C(=O)NC1CCN(C(=O)NCc2ccccc2)CC1 (centres undefined)
- Potency [1]: inactive

SMILES: CCN1CCS/C1=C/C=C/C1=[N+](CC)CCS1
- Potency [1]: active: 0.184 µM

SMILES: CCN(CC(=O)Nc1ccccc1OC)C(=O)c1ccc2[nH]c3c(c2c1)CC(C)CC3 (centres undefined)
- Potency [1]: active: 18.4 µM

SMILES: COC(=O)c1ccc(C2c3c(-c4ccccc4O)n[nH]c3C(=O)N2Cc2ccncc2)cc1 (centres undefined)
- Potency [1]: active: 18.4 µM

SMILES: COCCN1C2=C(C(=O)CC(C)(C)C2)C(c2ccc(OC)c(OC)c2)C2=C1CC(C)(C)CC2=O
- Potency [1]: inactive

SMILES: Cc1ccc(NC(=O)Nc2nnc(-c3ccncc3)s2)cc1C
- Potency [1]: active: 20.6 µM

SMILES: Cc1ccc(S(=O)(=O)Nc2ccccc2C(O)c2ccccc2)cc1 (centres undefined)
- Potency [1]: inconclusive [inhibitor, partial curve, poor fit]

SMILES: CSCCC(C(=O)NC(C)(C)C)n1c(-c2ccc(C)cc2)nc2ccccc21 (centres undefined)
- Potency [1]: inconclusive [inhibitor, single point]

SMILES: CCC(=O)N1CCc2cc(OC)c(OC)cc2C1COc1ccccc1OC (centres undefined)
- Potency [1]: inconclusive [inhibitor, partial curve]

SMILES: COc1cc(S(=O)(=O)Nc2ccc(C)cc2)ccc1NC(=O)c1ccncc1
- Potency [1]: inconclusive [inhibitor, single point]

SMILES: CC(=O)Nc1ccc(S(=O)(=O)NCCc2cn3ccsc3n2)cc1
- Potency [1]: inactive

SMILES: Cc1ccccc1S(=O)(=O)N1CCN(C)CC1
- Potency [1]: inactive

SMILES: Cc1nnc(NC(=O)CSc2nccn2Cc2ccc(F)cc2)s1
- activity change, negative = growth inhibition [1]: inconclusive: -30.8% [inhibitor]
- activity change, negative = growth inhibition (at 46.2 µM (top of the series)): inactive: -4.44%

SMILES: Cc1nc(SCC(=O)Nc2ccccc2)c2oc3ccccc3c2n1
- Potency [1]: inactive

SMILES: CCOc1ccccc1NC(=O)c1c(NCc2cccs2)sc2c1CCC(C)C2 (centres undefined)
- Potency [1]: inconclusive [inhibitor, single point]

SMILES: Cc1noc(C)c1-c1ccc2ncnc(N(C)Cc3ccco3)c2c1
- Potency [1]: inconclusive [inhibitor, single point]

SMILES: COc1ccc(C2c3[nH]c4ccccc4c3CCN2C(=O)c2ccccc2C(C)=O)c(F)c1 (centres undefined)
- Potency [1]: inconclusive [inhibitor, single point]

SMILES: CCc1cc(C(=O)NCc2ccccc2)no1
- Potency [1]: inactive

SMILES: O=c1[nH]c(/C=C\c2cccnc2)c([N+](=O)[O-])c(=O)[nH]1
- Potency [1]: inconclusive [inhibitor, single point]

SMILES: CCOC(=O)C(O)(NC(=O)c1cccnc1)C(F)(F)F (centres undefined)
- Potency [1]: inactive

SMILES: Cc1ccc(C(OCC(O)CNC(CO)C(O)c2ccc([N+](=O)[O-])cc2)c2ccccc2)cc1 (centres undefined)
- Potency [1]: inconclusive [inhibitor, single point]

SMILES: O=C(NCc1ccccc1)C(=O)Nc1ccc2nc3n(c(=O)c2c1)CCCCC3
- Potency [1]: inactive

SMILES: CCN1C(=O)/C(=C/c2nc3ccccc3c(=O)n2-c2ccccc2)c2ccccc21
- Potency [1]: active: 20.6 µM

SMILES: COc1ccccc1NC(=O)CN1C(=O)C2(SCC(=O)N2c2ccc(F)c(F)c2)c2ccccc21 (centres undefined)
- Potency [1]: inconclusive [inhibitor, single point]

SMILES: Cc1ccc(-n2nc3c(N4CCC(C(=O)N5CCCCCC5)CC4)nnc(C)c3c2C)cc1
- Potency [1]: active: 7.31 µM

SMILES: C[C@@H](N)C(=O)N[C@H]1CCC2C3CC=C4C[C@@H](O)CC[C@]4(C)C3CC[C@@]21C (some centres undefined)
- Potency [1]: inactive

SMILES: COc1ccc(F)cc1S(=O)(=O)NCC(c1ccco1)N1CCc2ccccc2C1 (centres undefined)
- Potency [1]: inconclusive [inhibitor, single point]

SMILES: NC(=O)c1cc(NC(=O)c2cc(Br)c(Br)s2)cc(C(N)=O)c1
- Potency [1]: inactive

SMILES: O=C(NCc1ccco1)/C(=C/c1cccc([N+](=O)[O-])c1)NC(=O)c1ccco1
- Potency [1]: inactive

SMILES: Cc1c(C(=O)Nc2cccc(Cl)c2)oc2ccc(S(=O)(=O)N3CCCCCC3)cc12
- Potency [1]: active: 23.1 µM

SMILES: Cc1cc(C)nc(-n2nc(C)c3c2N(C)C(=O)CC3c2ccc(Cl)cc2)n1 (centres undefined)
- Potency [1]: inconclusive [inhibitor, single point]

SMILES: Cc1cccc(OCCC(=O)Nc2ccc(S(=O)(=O)N3CCCC3)cc2)c1
- Potency [1]: inconclusive [inhibitor, single point]

SMILES: O=S(=O)(c1ccc(Cl)cc1)c1nc(-c2ccccc2F)oc1NCCN1CCOCC1
- Potency [1]: inconclusive [inhibitor, single point]

SMILES: COc1ccccc1C(CC(=O)Nc1ccc(C)c(C)c1)c1ccc(OC(C)C)cc1 (centres undefined)
- Potency [1]: inconclusive [inhibitor, partial curve]

SMILES: COc1ccc(C(=O)CC(=O)C(=O)Nc2ccccc2OC)cc1
- Potency [1]: inconclusive [inhibitor, single point]

SMILES: CCOc1ccc(CN2CCN(Cc3cc4ccccc4[nH]3)CC2CCO)cc1 (centres undefined)
- Potency [1]: inconclusive [inhibitor, single point]

SMILES: COC(=O)c1cc(OC)c(OC)cc1NC(=O)CSc1ccc(C)cc1
- Potency [1]: inconclusive [inhibitor, partial curve]

SMILES: CCc1ccccc1NC(=S)N(CCc1ccncc1)C(C)C
- Potency [1]: inactive

SMILES: COCCCNC(=O)C[C@H]1C[C@H](C(=O)N(C(C)C)C(C)C)[C@@]2(C)c3[nH]c4cc(-c5ccco5)ccc4c3CCN2C1=O
- Potency [1]: active: 16.4 µM

SMILES: CC1CCN(S(=O)(=O)c2ccc(C(=O)Nc3nnc(-c4ccncc4)o3)cc2)CC1
- Potency [1]: inconclusive [inhibitor, single point]

SMILES: Cc1cnc(NC(=O)C2(c3ccccc3)CC2)s1
- Potency [1]: inconclusive [inhibitor, single point]

SMILES: C(=N\Nc1ccccn1)/c1c[nH]c2ccccc12
- Potency [1]: inconclusive [inhibitor, single point]

SMILES: O=C(O)Cn1nnc(-c2ccc(OCc3ccccc3Cl)cc2)n1
- Potency [1]: inactive

SMILES: COc1cccc(/C=N/n2c(N)c(S(=O)(=O)c3cccs3)c3nc4ccccc4nc32)c1OC
- Potency [1]: active: 7.31 µM

SMILES: C=C(C)COc1ccc2c(C)c(C)c(=O)oc2c1OCC(=C)C
- Potency [1]: inconclusive [inhibitor, single point]

SMILES: Cc1ccc(NP(=O)(c2ccc(N(C)C)cc2NC(=O)c2cccs2)N2CCOCC2)cc1Cl (centres undefined)
- Potency [1]: inconclusive [inhibitor, partial curve]

SMILES: CCOC(=O)N1CCC(N2CCCC(C(=O)c3cccc(OC(C)C)c3)C2)CC1 (centres undefined)
- Potency [1]: inconclusive [inhibitor, single point]

SMILES: Cc1cc(C)nc(SCC(=O)N(C)C)n1
- Potency [1]: inactive

SMILES: O=S(=O)(c1cccs1)N1CCN(c2ccnc3cc(Cl)ccc23)CC1
- Potency [1]: active: 13 µM

SMILES: C=C(C)Cn1c2ccc(NC(=S)NCc3ccccc3F)cc2c(=O)n1C
- Potency [1]: inconclusive [inhibitor, partial curve, poor fit]

SMILES: COC(=O)C1=C(C(=O)OC)[C@@H]2N(C)c3ccccc3[C@@]23C[C@@H](CO)N(C(=O)NCCBr)C3=N1
- Potency [1]: inconclusive [inhibitor, partial curve]

SMILES: CN1CCN(c2ncc3nc(-c4cccs4)c(=O)n(Cc4cccs4)c3n2)CC1
- Potency [1]: active: 18.4 µM

SMILES: CCOc1cc(C(=O)OCC(=O)NCc2ccco2)cc(OCC)c1OCC
- Potency [1]: inactive

SMILES: O=C(Cc1cccs1)Nc1ccc([N+](=O)[O-])cc1
- Potency [1]: inactive

SMILES: O=C(NCc1ccccc1)c1cc(C2CCCN(C(=O)c3cccs3)C2)on1 (centres undefined)
- Potency [1]: inconclusive [inhibitor, single point]

SMILES: O=C1CN(C(=O)c2cc3ccccc3oc2=O)C(c2ccc(F)cc2)c2cc(F)ccc2N1 (centres undefined)
- Potency [1]: inconclusive [inhibitor, single point]

SMILES: Clc1ccc(OCc2nnc(SCCN3CCCCC3)n2Cc2ccco2)cc1
- Potency [1]: inconclusive [inhibitor, single point]

SMILES: CCOC(=O)C1(CCOC)CCN(Cc2cc3ccccc3s2)CC1
- Potency [1]: active: 18.4 µM

SMILES: Cc1nn(Cc2ccc(F)cc2)c(C)c1NC(=O)c1nn(C)cc1Cl
- Potency [1]: inactive

SMILES: CCOC(=O)c1c(NC(=O)Cn2nc(C(F)(F)F)cc2C)sc(C)c1C
- Potency [1]: inconclusive [inhibitor, single point]

SMILES: CCCOc1ccc(C(=O)Nc2ccc(NC(=O)c3ccccc3)c(Br)c2)cc1
- Potency [1]: active: 14.6 µM

SMILES: CS(=O)(=O)c1ccc(Cl)c(NC(=O)CN2CCCC2c2ccc3c(c2)OCCCO3)c1 (centres undefined)
- Potency [1]: inconclusive [inhibitor, single point]

SMILES: COc1ccc(CCNC(=O)COC(=O)COc2c(C)cc(C)cc2C)cc1OC
- Potency [1]: inactive

SMILES: Cc1ccc(C)c(NC(=O)c2ccc3ccccc3n2)c1
- Potency [1]: inconclusive [inhibitor, single point]

SMILES: Cc1ccc(Cl)c2c1NC(=O)C2(O)CC(=O)c1ccc(Br)cc1 (centres undefined)
- Potency [1]: inactive

SMILES: CC(CC(=O)OCC(=O)NC1CCS(=O)(=O)C1)c1ccccc1 (centres undefined)
- Potency [1]: inactive

SMILES: O=C(c1ccc2c(c1)OCO2)N1CCC2(CC1)Oc1ccc(F)cc1C(=O)C21CC(c2cccnc2)=NO1 (centres undefined)
- Potency [1]: inactive

SMILES: CCN1CCN(c2ncnc3c2cnn3-c2ccc(C)c(C)c2)CC1
- Potency [1]: inconclusive [inhibitor, single point]
